From the RNAGym collection of RNA variant scans (doi:10.7554/elife.90254)
Read counts are not given, so values of variants with three or more changes are uncertain.

B1: LINE1-full (parent)
chain: UACGUAGGUGGUUUUCCCCUGAUAGUGCUAAGGGGGCCUGGAAGUUUGGACUGGGCAGAGCUCAACACAGCGUGGCAAAGUGGCUGUGGCUAGACUGCCUCUCUGGAUUCCUCGUCACUCAGCAGGGCAUCUCUGAGAGAAAUGCC

Variants of: B1
Test: self-cleavage, relative activity (ratio to wild type); higher = more cleavage; in vitro, sequencing; the parent is a self-cleaving ribozyme

Variant	self-cleavage
AACGCAGGUGGUUUUCCCCUGAUAGUGCUAAGGGGGCCUGGAAGUUUGGACUGGGCAGAGCUCAACACAGCGUGGCGAAGUGGCUGUGGCUGGACUGCCUCUCUGGAUUCCUCGUCACUCAGCAGGGCAUCUCUGAGAGAAAUGCC [U1A U5C A77G A92G]	1.53
AACGUAGGUGGUUUUCCCCUGAUAGUGCUAAGGGGGCCUGGAAGUUUGGUCUGGGCAGGGCUCAACACAGCGUGGCAAAGUGGCUGUGGCUAGACUGCCUCUCUGGAUUCCUCGUCACUCAGCAGGGCAUCUCUGAGAGAAAUGCC [U1A A50U A59G]	0.17
AACGUAGGUGGUAUUCCCCUGAUAGUGCUAAGGGGGCCUGGAGGUUUGGACUGGGCAGAGCUCAACACAGCGUGGCAAAGUGGCUGUGGCUAGACUGCCUCCCUGGAUUCCUCGUCACUCAGCAGGGCAUCUCUGAGAGAAAUGCC [U1A U13A A43G U102C]	1.5
AACGUAGGUGGUUUUCCCCUGGUAGUGCUAAGGGGGCCUGGAAGUUUGGGCUGGGCAGAGCUCUAAACAGCGUGGCAAAGUGGCUGUGGCUAGACUGCCUCUCUGGAUUCCUCGUCACUCAGCAGGGCAUCUCUGAGAGAAAUGCC [U1A A22G A50G A64U C66A]	0.46
AACGUAGGUGGUUUUCCCCCGAUAGUGCUAAGGGGGCCUGGAAGUUUGGACUGGGGAGAGCUCAACACAGCGUGGCAAAGUGGCUGUGGCUAGACUGCCUCUCUGGACUCCUCGUCACUCAGCAGGGCAUCUCUGAGAGAAAUGCC [U1A U20C C56G U108C]	0.28
AACGUAGGUGGUUUUCCCCUGAUAGUGCUAAGGGGGCCCGGAAGUUUGGACUGGGCAGAGCUCAACACGGCGUGGCUAAGUGGCUGUGGCUAGACUGCCUCUCUGGAUUCCUCGUCACUCAGCAGGGCAUCUCUGAGAGGAAUGCC [U1A U39C A69G A77U A140G]	0.67
AACGUAGGUGGUUUUCCCCUGAUAGUGCUAAGGGGGCCUGGAAGUUUGGACUGGGCAGAGCUCAACACAGCGUGGCAAAGUAGCCGUGGCUAGACUGCCUCUCUGGAUUCCUCGUCACUCAGCAGGGCAUCUCUGAGAGAAAUGCC [U1A G82A U85C]	0.41
AACGUAGGUGGUUUUCCCCUGAUAGUGCUAGGGGGGCCUGGAGGUUUGGACUGGGCAGAGCUCAACACAGCGUGGCAAAGUGGCUGUGGCUAGACUGCCUCUCUGGAUUCCUCGACACUCAGCAGGGCAUCUCUGAGAGAAAUGCC [U1A A31G A43G U115A]	0.38
AGCGUAGGUGGUUUUCCCCUGAUAGUGCUAAGGGGGCCUGGGAGUUUGGACUGGGCAGAGCUCAACACAGCGUGGCAAAGUGGCUGUAGCUAGACUGCCUCUCUGGAUUCCUCGUCACUCAGCAGGGCAUCUCUGAGAGAAAUGCC [U1A A2G A42G G88A]	0.26
AACGUAGGUGGUUUACCCCUGGUAGUGCUAAGGGGGCCUGGAAGUUUGGACUGGGCAGAGCUCAACACAGCGUGGCAAGGUGGCUGUGGCUAGACUGCCUCUCUGGAUUCCUCGUCACUCAGCAGGGCAUCUCUGAGAGAAAUGCC [U1A U15A A22G A79G]	0.97
AACGUAGGUGGUUUUCCCCUGAUAGAGCUAAGGGGGCCUGGAAGUUUGGACUGGGCGGAGCUCAACACAGCGUGGCAAAGUGGCUGUGGCUAGACAGCCUCUCUGGAUUCCUCGUCACUCAGCAGGGCAUCUCUGAGAGAAAUGCC [U1A U26A A57G U96A]	0.13
AACGUAGGUGGUUUUCCCCUGAUAGUGCUACGGGGGCCUGGAAGUUUGGACUGGGCAGAGCUCAACACAGCGUGGCAAAGUGGCUGUGGCUAGACUGCCUCUCUGGAUUCCUCGUCACUCAGCAGGGCAUCUCUGAGUGAAUUGCC [U1A A31C A138U A142U]	1.06
AACGUAGGUGGUUUUCCCCUGAUAGUGCUAAGGGGGCCUGGAAGUUUGGACUGGGCAGAGCUCAACACAGCAAGGCAAAGUGGCUGUGGCUAGACUGCCUCUCUGGAUUCCUCGUCACUCAGCAGGGCAUCUCUGAGAGAAAUGCC [U1A G72A U73A]	2.78
AGCGUAGGUGGUUUUCCCCUGAUAGUGCUAAGGGGGCCUGGAAGUCUGGACUGGGCAGAGCUCAACACAGCGUGGCAAAGUGGCUGUGGCUAGACUGCCUCUCUGGAUUCCUCGUCACUCAGCAGGGCAUCUCUGAGAGAAAUGCC [U1A A2G U46C]	0.56
AACGUAGGUGGUUUUCCCCUGAUAGUGCUAAGGGGGCCAGGACGUUUGGACUGGGCAGAGCUCAACACAGCGUGGCAGAGUGGCUGUGGCUAGACUGCCUCUCUGGAUUCCUCGUCACUCAGCAGGGCAUCUCUGAGAGAAAUGCC [U1A U39A A43C A78G]	1.23
AACGUAGGUGGUUCUCCCCUGAUAGUGCUAAGGGGGCCUGGAAGUUUGGACUGGGCAGAGCUCUACACAGCGUGGCAAAGUGGCUGUGGCUAGACUGCUUCUCUGGAUUCCUCGUCACUCAGCUGGGCAUCUCUGAGAGAAAUGCC [U1A U14C A64U C99U A124U]	0.3
AACGUAGGUGGUUCUCCCCUGAUAGUGCUAAGGGGGCCUGGAAGUUUGGACUGGGCAGAGCUCAACACAGCGUGGCAAAGUGGCUGUGGCUAGACUGCCUCUCUGGAUCCCUCGUCACUCAGCAGGGCAUCUCUGUGAGAGAUGCC [U1A U14C U109C A136U A141G]	0.49
AACGUAGGAGGUUUUCCCCUGAUAGUGCUAAGGGGGCCUGGAAGCUUGGACUGGGCAGAGCUCAACACAGCGUGGCAAAGUGGCUGUGGCUAGACUGCCUCUCUGGAUUCCUCGUCACUCAGCAGGGCACCUCUGAGAGAAAUGCC [U1A U9A U45C U130C]	1.44
AACGUAGGUGGUUUUCCCCCGAUAGUGCUAAGGGGGCCUGGAAGUUAGGACUGGGCAGAGCUCAACACAGCGAGGCAAAGUGGCUGUGGCUAGACUGCCUCUCUGGAUUCCUCGUCACUCAGCAGGGCAUCUCUGAGAGAAAUGCC [U1A U20C U47A U73A]	1.21
AACGUAGGUGGUUUUCCCCUGAUGGUGCUAAGGGGGCCUGGAAGUUUGGACUGGGCAGAGUUCAACACAGCGUGGCAAAGUGGCUGUGACUAGACUGCCUCUCUGGAUCCCUCGUCACUCAGCAGGGCAUCUCUGCGAGGAAUGCC [U1A A24G C61U G89A U109C A136C A140G]	0.14
